# Measurements taken from ChEMBL document CHEMBL4888484, “Replenishing the malaria drug discovery pipeline: Screening and hit evaluation of the MMV Hit Generation Library 1 (HGL1) against asexual blood stage Plasmodium falciparum ,using a nano luciferase reporter read-out” (2022).
# Out of some 150,000 compounds screened, about 540 (0.36%) showed an effect of 50% or more. This is one part of the list.
# Tested on: Plasmodium falciparum
# Experiment: Primary screen in NF54 nanoGlo assay, in single point, at 2uM, 72h; a lower Z score goes with more inhibition
# Type: functional, Erythrocyte
# Conditions: timepoint 72 hour
SMILES,% Inhibition,Z score
Cn1nncc1S(=O)(=O)N1CC[C@H](c2nc(C3CC3)no2)C1,31%,-3.47
CN1C(=O)c2cc(NC(=O)c3ccco3)ccc2Oc2ncccc21,29%,-3.32
CC1(C)COc2ccc(C(=O)N3C[C@H](O)C4(CC4)C3)cc21,15%,-1.74
Cc1ccc(C2(CNC(=O)Cc3ncc[nH]3)CC2)c(C)c1,-1%,0.25
C[C@@H](C(=O)N1CCOc2ccc(CCC(=O)NCC3CC3)cc2C1)c1ccccc1,-9%,1.08
COc1ccc(N2CCN(C(=O)C3=Cc4ccccc4OC3)CC2)cc1,-6%,1
CC(C)n1ccnc1CN1CCC[C@@](O)(CNC(=O)N2CCCCC2)CC1,-5%,0.65
O=C(NCCC1=CCCCC1)c1cncn1-c1ccc(-c2cc(C(F)(F)F)cc(C(F)(F)F)c2)cc1,-8%,1.1
Cc1noc(C)c1CC(=O)Nc1ccc2c(c1)C[C@H](C)O2,-12%,1.61
C=Cc1ccc(S(=O)(=O)Nc2nnc(CCCC)o2)cc1,0%,0.05
Cc1ccccc1N1C(=O)C2CC2C1=O (stereo not given),1%,-0.13
COCCC1(C(=O)N2CCCN(C(=O)c3ccc[nH]3)CC2)CCCC1,-10%,0.88
Cc1cc(CN(CCc2ccccc2)CC2CCN(C)CC2)cc(C)c1O,-6%,0.81
CCOc1cccc(-n2cc(-c3ccccc3)nc2NC(=O)CN(C[C@H]2CCCO2)C(=O)C2CCCC2)c1,-9%,1.25
Cc1ncsc1-c1nc(-c2cnccn2)no1,-2%,0.26
CNC(=O)c1ccc(OC)c(CCCOc2ccccc2OC)c1,-13%,2.07
CCc1ccccc1NC(=O)N1CCN(c2cc(Oc3ccc(F)cc3C)ncn2)C[C@@H]1C,0%,-0.02
C=CCN(C(=O)Cn1c(=O)c2c(C(=O)N3CCCCC3)cc(C)nc2n(C)c1=O)c1ccccc1,2%,-0.24
O=C1NCc2c(NCc3cnc([C@@H]4CCCO4)s3)cccc21,-5%,0.62
N#Cc1c(F)cccc1Oc1cccc(-c2nnco2)c1,0%,-0.04
CC[C@]1(CO)CCCN1C(=O)CNC(=O)C(C)(C)C,4%,-0.52
Cc1cc(C(=O)N2CC(c3nc(-c4ccsc4)no3)C2)no1,18%,-2.01
O=C1NCCCOc2cccc(c2)[C@@H]2NCCc3cc(ccc32)Oc2ccc(O)c1c2,-8%,0.98
Cn1c(=O)n(CC2CCC(C(=O)NCc3ccccc3)CC2)c(=O)c2sccc21 (stereo not given),-18%,1.63
Cc1ccc(Cl)cc1-n1nc(O[C@@H](C)C(=O)NC2CC2)ccc1=O,-13%,1.99
Clc1ccc(Cl)c(Cn2nnnc2C2CCOCC2)c1,-4%,0.61
CCC(NC(=O)NCCC1CCCCO1)c1c(C)noc1C (stereo not given),-13%,1.2
COc1cncc(CNc2ccc(Br)cc2CO)c1C,2%,-0.2

SMILES,% Inhibition,Z score
Cc1ccccc1-c1cc(NC(=O)c2nc(=O)[nH][nH]2)n(C)n1,2%,-0.37
Cc1cc2c(N[C@H]3CCN(C(=O)c4ccccc4)C[C@@H]3O)ncnc2s1,-11%,2.09
COc1ccc(-c2nccn2Cc2nc(CC(C)C)no2)cc1OC,-2%,0.46
COc1ccc(Cl)cc1C(=O)N1CC(COc2ccc(F)cc2)C1,15%,-2.33
Cn1nccc1C[C@@H]1CCCN1C(=O)c1ccc2cccnc2n1,-5%,0.76
COc1ccc(NC2=NC(C)(C)Cc3cc(OC)c(OC)cc32)cc1,-8%,0.96
CCOCCC(=O)Nc1nnc([C@H](C)OC)s1,-10%,2.02
Clc1ccc2c(Cc3nnn[nH]3)c[nH]c2c1,-9%,1.65
Cc1ncnc(OCC2CCN(C(=O)c3cn(C)cn3)CC2)c1C,-16%,1.84
C[C@@H](CN1CCCC1)OC(=O)c1ccccc1Cl,-9%,1.24
Cc1cc(NC(=O)c2cc[nH]c2C)ccc1N1CCCC1=O,-12%,1.16
Cc1nc([C@H]2CC(=O)N(c3ccccc3)C2)no1,35%,-5.13
COc1cc(N2C[C@@H]3OC(=O)N(CCc4cccc(Cl)c4)[C@@H]3C2)ncn1,12%,-1.52
Cn1c(=O)ccn(CC(=O)N2CC3(CCCC3)c3cccc(Cl)c32)c1=O,-8%,1.28
CCS(=O)(=O)NCCNS(=O)(=O)c1cc(C)ccc1C,-9%,1.1
CN(Cc1ccc(-n2cccn2)cc1)Cc1ncccc1C(=O)O,-10%,1.34
CCn1ncc(CN(C)c2nccc(N3CCC[C@H](O)C3)n2)c1C,-1%,0.1
Cc1cccc(C2(C(=O)N3CC[C@H](OC(F)F)C3)CCCC2)c1,-27%,3.22
O=C(CCOc1cccc(Cl)c1)N1CCC[C@H]1c1ncon1,13%,-2.27
C[C@@H](CN1CCC(c2[nH]ncc2-c2cccc(F)c2)CC1)c1ccccc1,5%,-0.9
Cc1nccn1[C@@H](C)C(=O)N(C)CCCCN1CCOCC1,0%,0.06
CCN1CCN(Cc2cnc(OC)nc2)CC1=O,-10%,1.9
Cc1cnc(C)n1CCC1CCN(C(=O)C2CCOCC2)CC1,1%,-0.07
Cc1ccc(C)c(OCCN[C@H]2CCCNC2)c1,-3%,0.25
CC(C)(C(=O)Cn1c(=O)[nH]cc(C#N)c1=O)c1ccccc1,-18%,2.5
CCn1cc(CN2CC[C@]3(CO)CN(Cc4ccccc4)C[C@@H]3C2)c(C)n1,6%,-1.1
CN1CCCCc2c1nc1ccccc1c2N,-5%,0.65
